Hit rate of the full screen: of about 390,000 compounds, about 2,200 (0.56%) were called active. The shares of active, inactive and inconclusive entries below differ from those in the screen. The call rests on the fitted dose curve; in most records, active means well fitted inhibition curve with a large enough effect; inconclusive means small, poorly fitted or top-dose-only effect; inactive means no such curve, though single readings can be large or run the other way. Where the call is inconclusive, the potency comes from a doubtful curve fit.
target: Chromobox protein homolog 1 (Homo sapiens) (UniProt P83916); test: HTS for Inhibitors of HP1-beta Chromodomain Interactions with Methylated Histone Tails; conditions: AlphaScreen HP1-beta / biotin-H3K9me3 peptide binding; series mostly up to 114 µM; further: nearly all actives have a fitted effect of over 70% in size
UniProt P83916, sequence (P83916 whole entry, looked up): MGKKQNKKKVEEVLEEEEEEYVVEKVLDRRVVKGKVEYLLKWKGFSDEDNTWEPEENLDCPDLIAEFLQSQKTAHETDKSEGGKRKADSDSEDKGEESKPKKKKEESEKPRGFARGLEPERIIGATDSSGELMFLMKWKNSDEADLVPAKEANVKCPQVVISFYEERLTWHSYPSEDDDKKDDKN
Outline: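 AlphaScreen: HP1-beta (50 nM) preformed 30 min with biotin-H3(1-18)K9me3 peptide (50 nM) in PBS pH 7.4, 0.01% Tween-20. Compound added for 30 min at RT, then streptavidin donor/nickel chelate acceptor beads (10 ug/mL) for 30 min.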
Potency means the concentration at half of the fitted maximal effect; tags describe the fitted curve by direction and shape.

Compound | Potency
Cc1cc(C)n2c(Nc3ccc4c(c3)OCCO4)c(-c3ccccc3)nc2n1 | inconclusive: 8.91 µM [inhibitor, full curve]
C/C(=N\N(c1ccccc1)c1ccccc1)c1ccc(N)cc1 | inconclusive: 20 µM [inhibitor, full curve, poor fit]
COc1ccccc1/C(C)=N/Oc1cc(N)cc([N+](=O)[O-])c1 | inactive
CCOc1cc(/C=N\NC(=O)OC(C)(C)C)ccc1OC(=O)c1ccco1 | inactive
O=C(O)c1ccccc1NS(=O)(=O)c1ccc(NNC(=S)Nc2ccc(OC(F)F)cc2)c([N+](=O)[O-])c1 | active: 10 µM
CCNC(=S)N/N=C(\C)c1ccc2ccccc2c1OC(F)F | inconclusive: 15.8 µM [inhibitor, partial curve, poor fit]
COc1ccc(S(=O)(=O)N2CCC(N3CCCCC3)CC2)cc1 | inconclusive: 56.2 µM [inhibitor, partial curve]
CN(C)c1ccc(NS(=O)(=O)c2ccc(-c3csnn3)cc2)cc1 | inconclusive: 31.6 µM [inhibitor, full curve]
O=C(CSc1nnc(Cc2cccs2)n1Cc1ccco1)Nc1cc(Cl)cc(Cl)c1 | inconclusive: 28.2 µM [inhibitor, single point]
Cc1ccsc1C(=O)Nc1cc(Cl)ccc1-n1cncn1 | inactive
CN1CCN(C(c2ccc(Br)cc2)c2cc(Cl)c3cccnc3c2O)CC1 (stereo not given) | inconclusive: 8.91 µM [inhibitor, partial curve]
O=C1c2ccccc2C(=O)N1c1ccccc1 | inactive
Cc1ccc(S(=O)(=O)N2CCCC(C(=O)NCCc3ccc(S(N)(=O)=O)cc3)C2)cc1 (stereo not given) | inactive
COc1cc(Cl)c(C)cc1NC(=O)C1CCCN(c2ncnc3onc(-c4ccc(F)cc4)c23)C1 (stereo not given) | inactive
Cc1ccc(NC(=O)C2CCCN(C(=O)NCc3ccccc3)C2)c(C)c1 (stereo not given) | inactive
C[n+]1cccc(C(=O)NNC(=O)C23CC4CC(CC(C4)C2)C3)c1 | inconclusive: 89.1 µM [inhibitor, single point]
CCC(C)/C(C)=N/Nc1ccc(S(N)(=O)=O)cc1[N+](=O)[O-] (stereo not given) | inconclusive: 70.8 µM [inhibitor, partial curve]
CCOC(=O)c1sc(N2C(=O)C(O)=C(C(=O)c3ccco3)C2c2ccc(C)o2)nc1C (stereo not given) | inconclusive: 50.1 µM [inhibitor, partial curve, poor fit]
COc1cccc(-c2nc3c(c(SCC(=O)Nc4cccc(C)c4C)n2)Cc2c(CO)cnc(C)c2O3)c1 | inactive
COc1cccc(NC(=O)CN2C=NS(=O)(=O)c3ccccc32)c1 | inactive

Reference: PubChem BioAssay AID540317 (National Center for Advancing Translational Sciences (NCATS), 2011)
